The list shows a part of the results. At the low end of the ranking the order means little. Measured with an extract: partners may take part in the binding.

This assay concerns the target T1, HNF4alpha2 (COS-7 nuclear extract) (UniProt P41235).
T1 sequence: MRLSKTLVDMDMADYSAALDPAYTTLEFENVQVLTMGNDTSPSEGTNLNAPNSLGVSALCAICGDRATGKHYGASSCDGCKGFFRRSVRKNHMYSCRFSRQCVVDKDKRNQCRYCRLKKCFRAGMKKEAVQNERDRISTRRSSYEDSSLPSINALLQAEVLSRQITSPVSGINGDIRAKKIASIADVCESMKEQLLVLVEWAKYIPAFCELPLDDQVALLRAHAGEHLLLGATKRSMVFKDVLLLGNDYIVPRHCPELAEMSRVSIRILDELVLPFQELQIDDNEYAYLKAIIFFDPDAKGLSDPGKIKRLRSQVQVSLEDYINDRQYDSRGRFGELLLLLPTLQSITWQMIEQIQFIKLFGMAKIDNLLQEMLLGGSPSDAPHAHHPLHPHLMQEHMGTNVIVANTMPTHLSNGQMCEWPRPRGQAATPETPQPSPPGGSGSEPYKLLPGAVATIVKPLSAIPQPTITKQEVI
The experiment in a line: protein-binding microarray. The conditions noted are these: COS-7 nuclear extract on double-stranded Agilent 4x180k PBM; binding buffer, salt, pH and temperature not given; high values mean tight binding; double strand, one strand shown; sequences stand for … in …GCCTAGGGAGATTAGAGTATCGGTCGA
As for AGAGGGCCTCTGCTTGTCTTGGTTGTAGAA, the binding signal (log2 normalized intensity) was found to be 1.03.
As for AAAGATCATCTGGTGGCTTGAGTTGGAGAA, the binding signal (log2 normalized intensity) turned out to be 0.452.
For the sequence TAAAGTCTGTTTGATTCCATGCTGATAATG, the binding signal (log2 normalized intensity) was found to be 1.42.
Take AGCTCTTTGCACAGTACTGATCTGGGGCCT: the binding signal (log2 normalized intensity) was -0.475.
Regarding CATAGTGGGTTTCGGTGTCATCTAGACCTG, the binding signal (log2 normalized intensity) was determined as 1.1.
GGGACAAGGCTGTCCCCCATCTCATCCTGG: the binding signal (log2 normalized intensity) is -1.15.
As to TCAGATATCTGAATGTACCTTTGAAACCTA, the binding signal (log2 normalized intensity) turned out to be 2.87.
With GAGAAGGCAGGTAGAAGAAGAGGTCAGCTT, the binding signal (log2 normalized intensity) amounted to 0.0772.
Consider TCCCCCACCTACTGTCTCCTAATCAGCAAC, for which the binding signal (log2 normalized intensity) was found to be 1.96.
For the sequence TGGGGTATCAGGTGGTGATGGTGGGAGGGA, the binding signal (log2 normalized intensity) was found to be 0.113.
The result for ATTTGAGCCCAGGAGTTCAAGACTGGTATC reads 0.861; that for GGGTGTAAACCTGGTGGAAGATAAGGGTTA, -0.83.
As to GCCACTGCCTAGATAAAAGGGTCTTAGTAT, the binding signal (log2 normalized intensity) was determined as 0.712.
AATACTTGGAGACAGTGAGACGCAAGCATA: the binding signal (log2 normalized intensity) was -1.11.
Regarding GAAAGTACACAGTGCCTGCTTGCAGATAAA, the binding signal (log2 normalized intensity) is -0.937.
Regarding ATTCCCCTTTGTCTAAGCTAGTCATAGCTG, the binding signal (log2 normalized intensity) was -0.0535.
With AGCTCCAAAAGGTGGACAAGACTGGTTTTT, the binding signal (log2 normalized intensity) worked out at 0.686.
With TTTGAACACCTCTTCTTTCTTCTCTGGTAC, the binding signal (log2 normalized intensity) was 1.58.
On to GCTTCTGTACCTTTGACTATGGGCATGAAG, for which the binding signal (log2 normalized intensity) was 1.52.
On to GTCTAGGTTCTGGGGTGATTACCCTTATCT, for which the binding signal (log2 normalized intensity) is 1.13.
With CCTACCAGTATGCAATGTTAGTCTGGGAAA, the binding signal (log2 normalized intensity) was determined as 0.479.
Take CAATAAGCAATACATTGAACTTTGAACACC: the binding signal (log2 normalized intensity) was determined as 6.91.
For GTTTGCAGGGACAATGGATGGAACGTGGAC, the binding signal (log2 normalized intensity) worked out at 1.49.
Regarding TGACGTCATTGGAAATCCGAAATAAACTGA, the binding signal (log2 normalized intensity) was -1.06.
For AAGAGCCAAAATGTGTTAGGCAAGCAAACT, the binding signal (log2 normalized intensity) is -0.953.
As for CATTGAGTCCACTGAGATCACTTGGGGTAA, the binding signal (log2 normalized intensity) worked out at 0.868.
As to ATCCACTCAGTATGGCAACCTTTGTCCTGC, the binding signal (log2 normalized intensity) was found to be 4.84.
In the case of AACATGTAATTGCATGACCAAGTTGTATCA, the binding signal (log2 normalized intensity) is 0.881.
In the case of GAGGAGAGAGTAAATAATTGATGAAACAGG, the binding signal (log2 normalized intensity) is -0.991.
Regarding TAACTTCCGGCTGGCCTTCCCTCCTCCCTC, the binding signal (log2 normalized intensity) stood at 1.92.
In the case of TGCCCAACCTTTGCCCCTGGAGGGAGACAT, the binding signal (log2 normalized intensity) was determined as 3.34.
Turning to CGTGGAAAGTGGAAGAATGGGAAATTCCAT, the binding signal (log2 normalized intensity) is -1.11.
With CATCATCTTGTAATCTGCTTCCAGTTCCAT, the binding signal (log2 normalized intensity) was 0.0747.
TTTTGTTCAATATGCTGAAGTCCAACTGCT: the binding signal (log2 normalized intensity) was 0.989.
For the sequence GACAACATCTGGTGTGGTTAATGATTATGC, the binding signal (log2 normalized intensity) stood at 1.25.
On to CAAGCCAGTTTCCAGGGAGGAGAGAAGGGC, for which the binding signal (log2 normalized intensity) is -1.13.
Turning to GATTAAACTTTAGTCAGATTCCTCTGAGTC, the binding signal (log2 normalized intensity) was found to be 0.587.
Turning to ATAACTTCAAGGAGCTCGGCGCCAGGAAGC, the binding signal (log2 normalized intensity) was -1.07.
The result for GGATAATGGAGAAGATAAGCAGATCTTTAG reads -1.21.
For the sequence TTTCTTAATTGCCCTTTGCCCTTTGCCCAA, the binding signal (log2 normalized intensity) is 8.01.
For the sequence CTGTCCCTACTCAATTATCACCACACAGCA, the binding signal (log2 normalized intensity) was -1.04.
For TGCAAGGGAGACCAGGAAAGTGAATATCTG the value was -1.16; for CTGGTTCTGCAAGGCAACTGACCTTTGGAT, 8.08; for GTGTGACCAAGGACAAACTGAGGAGGACAT, -1.01.
For AACCCATTTGTTAGTCTCTGGGCCTCCCCA, the binding signal (log2 normalized intensity) worked out at 1.8.
As to CACCTGGCCAGCGACTTTAGGGGCCAAGGG, the binding signal (log2 normalized intensity) came out at 0.23.
For TCAAATGCAAAGGCAAACAGATGAAGTACT the value was -1.15; for TCTTCCCATCTAACTGCCCCTGATATCTGA, 2.92.
For the sequence CTGCCGAGGTGTCCTGTAAATAGTGTGTCA, the binding signal (log2 normalized intensity) was determined as 1.73.
Turning to AGGTGGAGATAAGGAATTTGTTAAGAACTG, the binding signal (log2 normalized intensity) is -1.03.
CTTCCAGGGAATAAAGAACTCTAAGCAGCG: the binding signal (log2 normalized intensity) was -1.09.
Consider TGAGGTAGTTGAGTGCCTCCATTTCACAAA, for which the binding signal (log2 normalized intensity) is -1.03.
CCTCAATGTTTACACTTCCATGTTTGTCTT: the binding signal (log2 normalized intensity) came out at 2.07.
For TGAATATGTACATGGACTTTGAACCAAGAT, the binding signal (log2 normalized intensity) was determined as 8.36.
Take GGAGATGCCGTTAAGCAGATAAGGTGCGGG: the binding signal (log2 normalized intensity) was -1.14.
In the case of ATATTCAAACAGGTCAAGCAATGCTGGGGA, the binding signal (log2 normalized intensity) is 0.151.
For the sequence GGTTGGGGCCTCCCTCCGTGGGGCTCCTTT, the binding signal (log2 normalized intensity) is -1.07.
Regarding CAAATTCCTCAATCCAGTCATCTCACACAA, the binding signal (log2 normalized intensity) is -1.15.
The result for GCCATTCCAGAAGTAGGATGGGGAGGGGGC reads -0.963; that for GGCAAAGGGCAAGGCGTCTCTGCCAAGGGG, -1.14; that for AAGCTTCACTGACATTCCAGCCACTAAGAA, -1.12.
On to GCTGAAAACTATGCATGCTGTGTGTGTGTG, for which the binding signal (log2 normalized intensity) turned out to be 2.28.
The result for CAGATAACAGCGAACATGAGGAATAAACTT reads -1.04; that for CCTAGCAACCTCCACATTGCAACAATGTCC, -0.84.
Regarding GGCCCATTTTCCCATGGTCTGTAGAAGGCG, the binding signal (log2 normalized intensity) was 0.306.
Turning to GCTCTGGTTCAAACAAGGCCAAAGTCTGGC, the binding signal (log2 normalized intensity) turned out to be 1.86.
In the case of CTCTTCCCAACTTGGCCTCAATGTTTACAC, the binding signal (log2 normalized intensity) was found to be 0.993.
Turning to TATCTGACTGATGCTAAAGTCTACATTCTA, the binding signal (log2 normalized intensity) amounted to 0.711.
Regarding TTGACCCCTTGGCCCCGCTGTCCTGATCCC, the binding signal (log2 normalized intensity) turned out to be 4.2.
With CTCTGCACACACAGACATAAACACAGACAC, the binding signal (log2 normalized intensity) is -1.14.
Turning to TTGTAGCCTCATTTCACCTTTGGTCTTTGG, the binding signal (log2 normalized intensity) amounted to 4.78.
Regarding TTCTGATAAGAGCATTTTTGTATGCATAAG, the binding signal (log2 normalized intensity) turned out to be 1.05.
